Among the data in PubChem BioAssay AID488969 (Vanderbilt High Throughput Screening Facility, 2010) are z-score values, retold here.

SMILES strings stand for the structures. Over roughly 110,000 compounds, “z-score” has its median near -0.1; the highest 2% begin near 2. Some of the results follow.

This experiment addresses Metabotropic glutamate receptor 8 (Rattus norvegicus) (UniProt P70579). Kind of experiment: mGluR8 Gi/Go-coupled signaling modulation – cell-based, rat, thallium flux, HTS, primary screen (AID 488969). Particulars: HEK293 rat mGluR8, GIRK (G protein-gated inwardly rectifying potassium channel) thallium flux, FluoZin2; at 10 µM; stronger effect = higher value; submaximal glutamate (EC20) added with thallium.
Sequence of UniProt P70579 (P70579 whole entry, looked up): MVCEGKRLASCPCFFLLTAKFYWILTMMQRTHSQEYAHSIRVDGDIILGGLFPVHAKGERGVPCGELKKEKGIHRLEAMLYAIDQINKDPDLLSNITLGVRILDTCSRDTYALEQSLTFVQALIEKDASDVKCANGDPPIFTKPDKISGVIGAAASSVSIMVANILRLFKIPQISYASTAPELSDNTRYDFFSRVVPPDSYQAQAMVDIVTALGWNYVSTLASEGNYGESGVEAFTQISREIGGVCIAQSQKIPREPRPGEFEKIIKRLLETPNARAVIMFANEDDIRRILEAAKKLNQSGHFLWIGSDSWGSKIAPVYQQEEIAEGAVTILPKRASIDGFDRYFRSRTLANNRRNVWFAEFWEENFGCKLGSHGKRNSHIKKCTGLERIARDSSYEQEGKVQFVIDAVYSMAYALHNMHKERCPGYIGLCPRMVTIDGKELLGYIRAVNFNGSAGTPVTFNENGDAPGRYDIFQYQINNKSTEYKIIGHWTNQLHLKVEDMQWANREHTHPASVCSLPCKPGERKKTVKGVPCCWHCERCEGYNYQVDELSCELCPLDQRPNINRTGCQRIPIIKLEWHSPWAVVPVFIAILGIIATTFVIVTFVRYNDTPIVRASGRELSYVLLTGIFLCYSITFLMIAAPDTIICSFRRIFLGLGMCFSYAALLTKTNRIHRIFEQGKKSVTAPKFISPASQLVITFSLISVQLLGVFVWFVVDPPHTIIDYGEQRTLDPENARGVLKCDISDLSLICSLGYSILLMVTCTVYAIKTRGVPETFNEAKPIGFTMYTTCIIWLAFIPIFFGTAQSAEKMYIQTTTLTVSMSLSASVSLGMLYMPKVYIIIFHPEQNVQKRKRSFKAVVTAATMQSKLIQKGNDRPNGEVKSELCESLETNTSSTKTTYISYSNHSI
The compound `CCCN(Cc1cc2cc(OC)ccc2[nH]c1=O)C(=O)c1ccncc1` returned a z-score of -0.075. In turn, `N#CCSc1ccsc1C(=O)Nc1ccc(F)cc1` had a z-score of 0.00201.

For the compound `Cc1cc(C)c(C)c(S(=O)(=O)NCC(=O)O)c1C`, the z-score is -0.225. `C=CCNC(=O)C1CC(=O)N(c2ccc(OCC(=O)Nc3ccc(Cl)c(C(F)(F)F)c3)cc2)C1` (stereo unspecified) came in with a z-score of -0.135. Take `O=C(CSc1nc(Cc2ccccc2)nc2ccccc12)Nc1ccc2c(c1)OCCO2`: the z-score was -1.02. The same measure for `COC(=O)CSC1=C(C#N)C(c2ccccc2OC)C(C(=O)OC)C(=O)N1` (stereo unspecified): -0.677; for `CCOC(=O)c1sc(NC(=O)CSc2nnc(C(C)C)n2CC)nc1C`: 0.179; for `CCC(NC(=O)/C(=C\c1ccc2c(c1)OCO2)NC(C)=O)C(=O)O` (stereo unspecified): -0.0342. As to `Cc1ccc2nc(-c3ccccc3)cn2c1`, the z-score was -0.4.

`N/C(=N\OC(=O)Cc1ccccc1)c1ccc(Br)cc1` registered a z-score of 2.92. Regarding `O=C(Nc1ccc(F)cc1)c1sc(Cl)nc1-c1ccccc1`, the z-score was -0.403. `CCOc1cccc2c1OC(c1cc(OC)c(OC)c(OC)c1)N1N=C(c3ccc(C)o3)CC21` (stereo unspecified): the z-score is 0.0246. As for `O=C1OC(Nc2ccc(Cl)cn2)c2ccccc21` (stereo unspecified), the z-score was -0.156.

The compound `CS(=O)(=O)N(CC(=O)N1CCOCC1)Cc1ccccc1` displayed a z-score of -0.000556. With `COc1cc(Nc2nnc(C)s2)c(Cl)cc1Cl`, the z-score was -0.0758. Under `N#CCN1CCN(CC(=O)Nc2cccc3ccccc23)CC1` stands 1.31; under `Cc1cccc2c1N(CCOc1ccc(C(C)(C)C)cc1)C(=O)C2=O`, 0.0456; under `CC1(C)CC(=O)C2=C(C1)OC(N)=C(C#N)C2Cc1ccccc1` (stereo unspecified), -0.029. The same measure for `CCCCOC(=O)c1ccc(NC(=O)c2nn(C)cc2Br)cc1`: -0.112. The same measure for `Cc1[nH]c2ccccc2c1C(c1ccccn1)c1c(C)[nH]c2ccccc12`: 0.169; for `Cn1c(C(=O)OCC(=O)NCC2CCCO2)cc2sccc21` (stereo unspecified): 0.622; for `COc1ccc(OC)c(-n2c(C)ccc2-c2ccc(S(C)(=O)=O)cc2)c1`: -0.248. `O=C(Nc1c2c(nc3c1CCC3)CCCC2)c1ccccn1` registered a z-score of -0.432. Under `CCCn1c(SCC(=O)N2N=C3/C(=C/c4ccc(OC)cc4)CCCC3C2c2ccc(OC)cc2)n[nH]c1=O` (stereo unspecified) stands -0.0176; under `CC1CCN(CC(=O)Nc2cccc([N+](=O)[O-])c2)CC1`, -0.103; under `C/C(=C/c1oc2ccc(O)cc2c1[N+](=O)[O-])N(C)C`, -0.663.

Regarding `CCC(=O)N1CCc2cc(S(=O)(=O)NCCCN3CCN(Cc4ccccc4)CC3)ccc21`, the z-score is -0.193. `COCCNC(=O)c1c(NC(=O)c2nc(SC)ncc2Cl)sc2c1CCCC2` returned a z-score of -1.69. Under `Nc1ccc2c(c1)C(=O)N(CC1CCCO1)C2=O` (stereo unspecified) stands -0.0617. The compound `COc1ccc(S(=O)(=O)N2CCn3c2nc2ccccc23)cc1` gave a z-score of 0.0748. Consider `CCc1ccc(N=CC2=C(O)CC(c3ccco3)CC2=O)cc1` (stereo unspecified), for which the z-score was -0.0735. The same measure for `COc1ccc(/C=C2/C(=O)ON=C2c2ccccc2)cc1OC`: -0.13; for `Cn1c(SCC(=O)c2c(N)n(C)c(=O)n(C)c2=O)nnc1-c1ccc(F)cc1`: -0.319. Under `COc1cc2c(cc1NC(=O)COC(=O)/C=C/c1ccccc1)oc1ccccc12` stands -0.0343; under `Cc1ccccc1N(C(=O)Cc1c[nH]c2ccccc12)C(C(=O)NC1CCCCC1)c1ccco1` (stereo unspecified), -0.148; under `CCCC(=O)Nc1cc(-c2nnc(OC)c3ccccc23)ccc1N1CCOCC1`, -0.445.

As for `Cc1cc2cc(CNC(=O)Nc3ccccc3)ccc2n1C`, the z-score was -0.263. The same measure for `CCOC(=O)C1=C(CSc2nncn2C)NC(=O)NC1c1cc(OCC)ccc1OCC` (stereo unspecified): 0.113. Regarding `O=C(COC(=O)C1CC1)Nc1ccccc1Sc1ccccc1`, the z-score was -0.43. As for `O=C(Nc1ccc2oc(-c3ccccc3F)nc2c1)c1cncc(Br)c1`, the z-score was -0.141. Under `CCNC(=O)c1c(NC(=O)C2COc3ccccc3O2)sc2c1CCCC2` (stereo unspecified) stands 0.0967. The same measure for `CCOc1cc(CNc2ccc(O)cc2)ccc1OCc1ccc(Cl)cc1Cl`: -0.163; for `O=C(CC1NC2CCCCC2NC1=O)Nc1ccc2c(c1)OCO2` (stereo unspecified): -0.312. The same measure for `CCc1ccc(-c2csc3[n+]2CCN3C(C)=O)cc1`: 0.228; for `C=CCN(C)CC/C=C1\c2ccccc2CSc2ccccc21`: 1.99; for `COc1ccc(Nc2ncc(C(=O)O)c3ccccc23)cc1`: 0.188. For `COC(=O)c1sc(OC)cc1OCc1ccc(C)cc1`, the z-score was -0.492. Regarding `CC(=O)c1ccc(OCC(O)CN2CCOCC2)cc1` (stereo unspecified), the z-score is -0.233. The compound `COCCNc1nnc(SCC(=O)Nc2cc(-c3ccccc3)nn2-c2ccccc2)s1` showed a z-score of 0.027. For the compound `CCOC(=O)C(Sc1nnc(-c2ccncc2)o1)C(C)=O` (stereo unspecified), the z-score is -0.221. Under `O=C(Cn1cc(S(=O)(=O)Cc2ccccc2)c2ccccc21)Nc1ccccc1` stands -0.33.

For `Cc1ccc(OCc2ccc(C(=O)Nc3nccs3)o2)cc1C`, the z-score was -0.198.

Take `O=C(O)c1ccc(COCC(F)(F)C(F)F)o1`: the z-score is -0.238. Under `COCCn1c(SCC(=O)c2ccc3c(c2)OCCO3)nnc1-c1ccoc1C` stands -0.231; under `CCOC(=O)c1ccc(N2C(=O)CC(Nc3ccc(CCO)cc3)C2=O)cc1` (stereo unspecified), 0.208.

`Cc1ccc(CCNC(=O)CS(=O)Cc2nc(-c3cccc(C)c3)oc2C)cc1` (stereo unspecified): the z-score was -0.0168. `CC(C)(C)OC(=O)N[C@@H](Cc1ccccc1)C(=O)N1CCC(C(=O)O)CC1`: the z-score is -0.0408. The same measure for `CCn1c(SCc2ccc(F)cc2)nnc1C1CCN(S(=O)(=O)c2ccc(OC)cc2)CC1`: -0.188; for `COC(=O)NNC(=O)COc1ccc(Cl)cc1`: -0.0892; for `O=[N+]([O-])c1ccc(Sc2ccc(Cl)c(Cl)c2)nc1`: 0.061. The same measure for `CCOC(=O)COc1cccc2c(=O)n(CC(=O)NCc3ccc4c(c3)OCO4)ccc12`: -0.524. The same measure for `Cc1c(N2C(=O)CS/C2=N\N=C\c2ccc(Cl)cc2)c(=O)n(-c2ccccc2)n1C`: -0.118; for `Cc1cnc(C(=O)N2CCN(S(=O)(=O)c3ccc4ccccc4c3)CC2)cn1`: 0.0546; for `CCOC(=O)C(Sc1cc(C)nc(N)n1)C(C)=O` (stereo unspecified): 0.561. Take `Cc1ccc2[nH]c(=O)c(CN(Cc3ccc4c(c3)OCO4)Cc3nnnn3Cc3ccco3)cc2c1`: the z-score was -0.0233. In turn, `O=C1OC(c2ccc(Cl)cc2)/C(=C(/O)c2ccccc2)C1=O` (stereo unspecified) displayed a z-score of -1.24. `CCOCCCNC(=O)C1CCCCN1S(=O)(=O)c1ccc(F)cc1` (stereo unspecified): the z-score is -1.05.

For `CCS(=O)CCSC(=N)N` (stereo unspecified), the z-score is -0.0992. Regarding `O=C(CSc1nnc2sc3ccccc3n12)c1ccco1`, the z-score is -0.891. The same measure for `Cc1ccc2oc(-c3ccc(NC(=O)c4ccc5c(c4)OCO5)cc3)nc2c1`: 0.485; for `CCCc1cc(C(=O)Nc2ccccc2C(=O)OC)no1`: 0.159.
